# Variants at the background level are over-represented here.
# B1: tRNA (parent)
# chain: CUCUCGGUAGCCAAGUUGGUUUAAGGCGCAAGACUUUAAUUUAUCACUACGAAAUCUUGAGAUCGGGCGUUCGACUCGCCCCCGGGAGAUUUUUUCCUCGAGCAA
# Variants of: B1
# Assay: nonsense suppression (GFP-seq) (ratio to wild type); higher = more function; SUP4oc tRNA, yeast GFP reporter sort-seq
# In short: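 Nonsense suppression (GFPSEQ) is the median GFP/RFP ratio of each sorting bin, weighted by the variant's estimated share of cells in that bin and expressed relative to the unmutated parent tRNA. Yeast strains carried genome-integrated variants of an ochre-suppressor tRNA from a library with ~3% random mutations, plus a galactose-driven GFP ochre reporter and RFP, and were grown in raffinose/galactose medium containing 80 mg/L adenine. Cells were sorted into GFP/RFP bins, each bin was Illumina-sequenced (phred ≥30), and variants were kept only with ≥100 reads and ≥30 cells.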
row,Variant,nonsense suppression
1,C27A A33U,≤ 0.026
2,C27U C29U C64A G84A A87C,≤ 0.026
3,C27G G65C A74G A87G,≤ 0.026
4,G28A G84A,≤ 0.026
5,G26C G78U C82A,≤ 0.026
6,C27A U70A,≤ 0.026
7,C27A U70C,≤ 0.026
8,C27U C34U,≤ 0.026
9,C27U A33G C56A G88A A89U,≤ 0.026
10,G26C U57A A89C,≤ 0.026
11,G28C A33G G65A U70C,≤ 0.026
12,G26C C77U,≤ 0.026
13,G28A U63C C64U G78U G85A,≤ 0.026
14,G26C A62U U71C,≤ 0.026
15,C27U A31U,0.0324
16,C27A C72A,≤ 0.026
17,G26C U63G,≤ 0.026
18,C27G A31G G73C,≤ 0.026
19,C27G G28C G67A C83A A87C,≤ 0.026
20,G26C C29A G84A,≤ 0.026
21,G26U C27U A62C U70G G86C G88A,≤ 0.026
22,G28U A54C,≤ 0.026
23,C27A G88A,≤ 0.026
24,G28C U76A C81G,≤ 0.026

row,Variant,nonsense suppression
1,C27U A30G G61U,≤ 0.026
2,C27U A30G G32A A33G G66C,≤ 0.026
3,C27G A62G,≤ 0.026
4,C27G A31U A60U,≤ 0.026
5,G28A A74C,≤ 0.026
6,C27U C34G A60G G69C,≤ 0.026
7,G26U U57A G88A,≤ 0.026
8,C27G U35C A74G G78A,≤ 0.026
9,G26C G28A C29U,≤ 0.026
10,C27A G59C G69C U76A G84A,≤ 0.026
11,G28U A30G C64U G69C,≤ 0.026
12,G26C A33G G84C,≤ 0.026
13,G26U A89C,≤ 0.026
14,C27A C81A,≤ 0.026
15,G28C U70G A87C,≤ 0.026
16,C27U G32U A74C,≤ 0.026
17,C27G U57A C64A,≤ 0.026
18,C27U U76C,≤ 0.026
19,C27U U76G,≤ 0.026
20,G26C A60G,≤ 0.026
21,G26C A60C,0.027
22,G26C G61U U63A,≤ 0.026
23,G26C G61C,≤ 0.026
24,G26C U57G A60C,≤ 0.026

row,Variant,nonsense suppression
1,C27A U57C,≤ 0.026
2,C27U U70A,≤ 0.026
3,C27A A89U,≤ 0.026
4,C27A G61U G86U,≤ 0.026
5,C27U A31C U55A,≤ 0.026
6,G26U A54G U55A G78U,≤ 0.026
7,G28C U57C C81A G86U,≤ 0.026
8,C27A A31G U58A,≤ 0.026
9,C27U A31U C34G G69U,≤ 0.026
10,C27A A33C G66U,≤ 0.026
11,G28A A60G,1.07
12,G28U A33G A54G C80G,≤ 0.026
13,G26U G67U,≤ 0.026
14,G26U A30C,≤ 0.026
15,G26U C29U U71C,≤ 0.026
16,C27G G73A A74U,≤ 0.026
17,C27U A31U A33U,≤ 0.026
18,C27U A87G G88C,≤ 0.026
19,C27A G69A U70G A89U,≤ 0.026
20,C27U A54U G59U G85U,≤ 0.026
21,C27U C77U,≤ 0.026
22,G26U G32U,≤ 0.026
23,C27G G28U,≤ 0.026
24,C27U G65C,≤ 0.026

row,Variant,nonsense suppression
1,C27U G65A,0.0374
2,C27U G65U,≤ 0.026
3,G26U C29G A30U G32C G85U,≤ 0.026
4,G26C A54C G73C U76G G78C,≤ 0.026
5,G28C A33C,≤ 0.026
6,C27U G86A,≤ 0.026
7,C27G G67C G86C,≤ 0.026
8,G28A A33G,0.161
9,C27U C75A,0.641
10,G26C C27U,≤ 0.026
11,C27U A74C,0.0355
12,C27G A31G G61A U76G C81A,≤ 0.026
13,G28U A60G A62C C77U,≤ 0.026
14,G28C G73U,0.0322
15,G26U C64U G86C,≤ 0.026
16,G26U U58G G61A C75G,≤ 0.026
17,G28C U70G,≤ 0.026
18,C27U U35A U76G,≤ 0.026
19,C27A A30G G61U C72U G85A,≤ 0.026
20,C27U G59U G61U G66U,≤ 0.026
21,G26U G65C U71A G78U,≤ 0.026
22,C27U G59A U76C,≤ 0.026
23,G26C C75A,≤ 0.026
24,C27U C56G A74G,≤ 0.026

row,Variant,nonsense suppression
1,C27A G59C,≤ 0.026
2,C27A G59U,≤ 0.026
3,G26U U71C,≤ 0.026
4,G26C C34A C83A,≤ 0.026
5,C27U A33G,≤ 0.026
6,C27G U35G C79A,≤ 0.026
7,G28A G69C C80A,≤ 0.026
8,G26C U35G,≤ 0.026
9,G28U A60U U71G,≤ 0.026
10,C27U U58G U63G C68U,≤ 0.026
11,C27G A62U C80A,≤ 0.026
12,G28U C79A A87C,≤ 0.026
13,G28A G32C,≤ 0.026
14,G28A U57C,≤ 0.026
15,G28A G32U G61A G66A,≤ 0.026
16,G28C C79G G84A A89G,≤ 0.026
17,C27G A30U G61C A89G,≤ 0.026
18,G26C C29G C56A,≤ 0.026
19,G26U G61U G66C G86U,≤ 0.026
20,G28C G61A G86A,≤ 0.026
21,G28A G86C,≤ 0.026
22,G26U G28C A31G A74U,≤ 0.026
23,G28C U35C U58A,≤ 0.026
24,C27A A33C U57C C81U,≤ 0.026

row,Variant,nonsense suppression
1,G28C U57C C75G,≤ 0.026
2,G28C G78C,≤ 0.026
3,G28C G78A,0.0288
4,C27A C83G G84C,≤ 0.026
5,C27G U55G C79A,≤ 0.026
6,C27G U55G,≤ 0.026
7,G28A C82A,≤ 0.026
8,G28A C68U,1.17
9,G28A A54C C68U,0.18
10,G28A A33G C56U,≤ 0.026
11,C27G C80G A87G,≤ 0.026
12,G26U C56A,≤ 0.026
13,G28A U76G,≤ 0.026
14,G26U C82A G84U,≤ 0.026
15,G28C U63C,0.114
16,G26C A54G U63G,≤ 0.026
17,C27U U35A,≤ 0.026
18,C27U U63G C77G,≤ 0.026
19,G28C G67A,0.0635
20,C27U G32C,≤ 0.026
21,C27A G69A,≤ 0.026
22,C27U G61A G84U,≤ 0.026
23,C27A A31C,≤ 0.026
24,C27G C34U U71C G88C,≤ 0.026

row,Variant,nonsense suppression
1,G26C G67A G86C,≤ 0.026
2,G28C U57C,0.0349
3,C27U A74C C75G A89U,≤ 0.026
4,C27G A62G U63C,≤ 0.026
5,C27G G67A,≤ 0.026
6,G28C G67C C79U,≤ 0.026
7,G28C C34U G78C,≤ 0.026
8,C27G C80U,≤ 0.026
9,G26U G28A G66C,≤ 0.026
10,C27U A30G A60G,≤ 0.026
11,C27A A31G G78C,≤ 0.026
12,C27G U55A A60C,0.809
13,C27U G32A U71G,≤ 0.026
14,C27A A33G U70G,≤ 0.026
15,G28A C34G G84C G88C,≤ 0.026
16,G26C U57A,≤ 0.026
17,G26U C34A A87U,≤ 0.026
18,G26U U71G G85U,≤ 0.026
19,C27G C64G G66A,≤ 0.026
20,G26U A33G A60G G86U G88C,≤ 0.026
21,G28U C79U,≤ 0.026
22,G28C C82G,≤ 0.026
23,G28U G61C C82G,≤ 0.026

# — the RNAGym collection of RNA variant scans (doi:10.1101/gad.245936.114)
